7 substances from PMC12548284, “SIK2-mediated phosphorylation of GABARAPL2 facilitates autophagosome–lysosome fusion and rescues neurodegeneration in an Alzheimer’s disease model” (Translational Neurodegeneration, 2025) can be followed below.

By UniProt entry, the sequences of proteins in these tests, tags left out. Where a name states a change or a piece, a line headed by the entry shows the natural chain unless it says otherwise.
UniProt P60521: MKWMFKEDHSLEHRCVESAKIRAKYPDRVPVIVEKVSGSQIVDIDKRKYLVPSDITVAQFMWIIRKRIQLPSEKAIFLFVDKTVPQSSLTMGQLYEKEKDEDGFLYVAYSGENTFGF
UniProt P60520: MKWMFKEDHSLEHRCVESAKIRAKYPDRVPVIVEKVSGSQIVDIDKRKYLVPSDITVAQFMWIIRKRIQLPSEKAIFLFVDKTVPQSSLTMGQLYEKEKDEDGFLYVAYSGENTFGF
UniProt Q9DCD6: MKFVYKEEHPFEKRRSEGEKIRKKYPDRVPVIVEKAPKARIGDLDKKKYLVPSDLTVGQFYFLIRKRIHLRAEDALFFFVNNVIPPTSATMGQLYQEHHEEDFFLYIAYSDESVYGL
UniProt Q60670: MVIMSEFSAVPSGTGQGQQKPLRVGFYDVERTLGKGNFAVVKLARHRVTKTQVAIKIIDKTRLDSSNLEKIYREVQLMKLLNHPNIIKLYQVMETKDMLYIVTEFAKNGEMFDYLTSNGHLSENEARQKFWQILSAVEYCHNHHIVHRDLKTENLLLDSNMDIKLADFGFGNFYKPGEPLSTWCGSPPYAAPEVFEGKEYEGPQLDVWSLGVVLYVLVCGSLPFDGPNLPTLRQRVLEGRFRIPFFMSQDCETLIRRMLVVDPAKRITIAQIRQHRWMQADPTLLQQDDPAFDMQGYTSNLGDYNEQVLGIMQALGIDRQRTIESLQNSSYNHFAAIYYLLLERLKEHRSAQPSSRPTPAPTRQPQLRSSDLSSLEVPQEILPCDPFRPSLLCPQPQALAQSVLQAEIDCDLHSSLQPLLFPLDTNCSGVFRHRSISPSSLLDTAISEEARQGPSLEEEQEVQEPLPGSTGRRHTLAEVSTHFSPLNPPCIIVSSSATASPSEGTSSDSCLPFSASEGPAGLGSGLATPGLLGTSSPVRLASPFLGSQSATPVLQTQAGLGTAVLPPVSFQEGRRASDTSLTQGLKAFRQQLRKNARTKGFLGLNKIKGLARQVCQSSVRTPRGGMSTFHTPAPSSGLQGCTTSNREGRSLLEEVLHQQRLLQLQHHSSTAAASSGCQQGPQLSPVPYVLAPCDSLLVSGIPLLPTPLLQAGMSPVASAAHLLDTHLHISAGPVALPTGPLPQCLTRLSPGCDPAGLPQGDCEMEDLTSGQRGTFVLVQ

The target of test [1] is SIK2-flag (salt-inducible kinase 2, flag-tagged) (UniProt Q8CFH6). The test can be described thus: co-IP; N2a cells overexpressing SIK2-flag; lysates in RIPA buffer incubated with anti-flag magnetic beads; Western blot for ATG8 family members. A general note: A western blot detects proteins with antibodies after separation by electrophoresis.
Test [2] addresses Salt-inducible kinase 2 (SIK2) (mouse (endogenous in N2a and in hippocampal tissue)) (UniProt Q8CFH6). Put plainly: co-IP; mouse hippocampal tissue lysate in RIPA buffer, pre-cleared with Protein A/G beads; anti-SIK2- or control IgG-conjugated beads overnight.
In a further test the target is T1, SIK2(1–290)-His (UniProt Q8CFH6).
T1 sequence: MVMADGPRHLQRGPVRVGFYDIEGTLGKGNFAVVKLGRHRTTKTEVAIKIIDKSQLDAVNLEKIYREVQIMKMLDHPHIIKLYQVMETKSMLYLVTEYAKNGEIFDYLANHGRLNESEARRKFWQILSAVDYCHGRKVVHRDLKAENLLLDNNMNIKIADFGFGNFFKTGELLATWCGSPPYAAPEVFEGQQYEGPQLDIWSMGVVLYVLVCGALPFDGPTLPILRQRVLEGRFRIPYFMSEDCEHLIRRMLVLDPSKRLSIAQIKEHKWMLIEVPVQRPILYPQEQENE
The test can be described thus: co-IP; SIK2 deletion mutants with His tag, precipitated with anti-His antibodies; blot for GABARAPL2.

A further test addresses SIK2(1–931)-His (UniProt Q8CFH6). Described as above.
The next test deals with T2, SIK2(1–550)-His (UniProt Q8CFH6).
T2 sequence: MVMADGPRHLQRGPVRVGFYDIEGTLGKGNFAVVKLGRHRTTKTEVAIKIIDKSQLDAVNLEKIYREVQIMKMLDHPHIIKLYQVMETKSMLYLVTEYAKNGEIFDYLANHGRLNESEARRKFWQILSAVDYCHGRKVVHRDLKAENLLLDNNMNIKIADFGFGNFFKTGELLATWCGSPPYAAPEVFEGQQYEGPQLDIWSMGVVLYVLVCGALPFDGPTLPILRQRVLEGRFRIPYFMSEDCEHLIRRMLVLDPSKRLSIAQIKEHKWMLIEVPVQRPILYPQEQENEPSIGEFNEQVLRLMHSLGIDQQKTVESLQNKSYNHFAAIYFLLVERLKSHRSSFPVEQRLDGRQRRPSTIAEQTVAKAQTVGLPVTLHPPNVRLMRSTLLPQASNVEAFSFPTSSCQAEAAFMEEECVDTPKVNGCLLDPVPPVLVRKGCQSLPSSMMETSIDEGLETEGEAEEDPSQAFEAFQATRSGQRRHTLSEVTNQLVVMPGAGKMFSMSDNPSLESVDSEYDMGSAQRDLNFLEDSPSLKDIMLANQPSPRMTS
Described as above.

A further test concerns the target T3, SIK2(1–650)-His (UniProt Q8CFH6).
T3 sequence: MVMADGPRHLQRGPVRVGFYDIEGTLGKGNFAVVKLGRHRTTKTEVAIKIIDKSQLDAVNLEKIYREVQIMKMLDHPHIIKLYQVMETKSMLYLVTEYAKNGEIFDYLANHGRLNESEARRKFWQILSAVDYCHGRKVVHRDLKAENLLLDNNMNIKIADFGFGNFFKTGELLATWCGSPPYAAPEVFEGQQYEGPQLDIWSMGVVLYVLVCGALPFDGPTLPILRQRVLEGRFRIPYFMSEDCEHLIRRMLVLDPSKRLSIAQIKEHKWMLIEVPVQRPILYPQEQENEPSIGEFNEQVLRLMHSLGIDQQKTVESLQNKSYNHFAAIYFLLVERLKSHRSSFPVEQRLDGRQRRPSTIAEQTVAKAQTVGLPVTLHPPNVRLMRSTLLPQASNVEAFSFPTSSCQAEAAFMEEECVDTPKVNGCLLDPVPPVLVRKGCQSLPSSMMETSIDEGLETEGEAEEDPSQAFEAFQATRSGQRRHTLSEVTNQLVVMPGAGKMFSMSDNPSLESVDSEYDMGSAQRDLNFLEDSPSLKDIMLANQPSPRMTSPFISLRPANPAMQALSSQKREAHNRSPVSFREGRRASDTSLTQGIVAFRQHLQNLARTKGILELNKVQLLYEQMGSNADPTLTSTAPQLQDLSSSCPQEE
Described as above.

For test [3], the target named is GABA type A receptor-associated protein-like 2 (GABARAPL2) (mouse (endogenous in N2a and in hippocampal tissue)) (UniProt P60521). Put plainly: co-IP; 'in either experimental system': the system other than hippocampal tissue, not given.
For test [4] the target is unchanged. The test can be described thus: co-IP; mouse hippocampal tissue lysate in RIPA buffer, pre-cleared with Protein A/G beads; anti-SIK2- or control IgG-conjugated beads overnight.
The target in a further test is flag-tagged GABARAPL2 (UniProt P60521). The test can be described thus: co-IP; reciprocal: N2a cells overexpressing flag-tagged ATG8 family members; anti-flag beads; Western blot for SIK2.
In a further test the target is T4, GST-GABARAPL2 (UniProt P60520 1-117).
T4 construct: GABARAPL2 of the bought GST fusion protein; source: bought: Proteintech (Ag1155)
Put plainly: pull-down; competitive GST pull-down: GST-GABARAPL2 on glutathione-conjugated Sepharose beads, SIK2 protein in solution, LIR peptide at 0, 5, 10, 20, 40 μmol/L; immunoblot; both purified.

These are yes or no findings as the source states them, for the method shown. For part of these data: In cells and extracts the contact can be indirect. Some binding calls cover weakened binding; strength is not graded here. For part of these data: Where a sequence is shown, tags or fusion partners need not be part of it.

For the substance “GABA type A receptor-associated protein-like 2 (GABARAPL2) (from UniProt P60521 1-117)”, the binding entry in test [1] and in test [2] was “binds” in each case. With GABARAP (from UniProt Q9DCD6 1-117), in [1], the binding result is listed as “binds”. “GABARAPL2 (in the Co-IP with the SIK2 deletion mutants) (from UniProt P60521 1-117)”: the binding entry is on record as “no binding” in the test with SIK2(1–290)-His, “binds” with SIK2(1–931)-His, “binds” with SIK2(1–550)-His and “binds” with SIK2(1–650)-His. As for LC3A (from UniProt Q91VR7 1-121), the binding result in test [1] was “binds”. For the substance “SIK1 (from UniProt Q60670 1-779) (enzyme)”, the binding result in test [3] and in test [4] was “no binding” each time.

Regarding “Salt-inducible kinase 2 (SIK2) (from UniProt Q8CFH6 1-931) (enzyme)”, the binding entry in the test with flag-tagged GABARAPL2 is recorded as “binds”. On to “full-length SIK2 protein (expressed in vitro) (from UniProt Q8CFH6 1-931) (enzyme)”, for which the binding result with GST-GABARAPL2 is given as “binds”.
